# Measured values taken from the RNAGym collection of RNA variant scans (doi:10.7554/elife.90254).
# The source gives no read counts; variants with many changes may rest on few reads.
# B1: OR4K15 (parent)
# chain: GUUAACGGUCAUAGGCCAUGGAAACUAGGAGCACCAUUUCGCUGCCAGUGAAGAAAUGAACAAAGAAAAUCUGGGCCAGGCAGGCAUCAAAAGAAAUAGUCUUGCGCUCAACCAGAAAGUCUGUAAUCAUUUUAAGGGUA
# Variants of: B1
# Assay: self-cleavage, relative activity (ratio to wild type); higher = more cleavage; in vitro, sequencing; the parent is a self-cleaving ribozyme
row,Variant,self-cleavage
1,A5G A63G A92G U103C,0.73
2,A5G U12C A52G A69G,0.85
3,C6U G48A U102A A110C,0.08
4,A5G C40U A51G A78U,0.6
5,A5G U57A A78G A117G U127C U130C,0.1
6,A5G A24G C46A U49C U124A,0.5
7,A5U U43C A52G,1.52
8,A5G C32U A54G A69G,1.16
9,A5G A96G A118G U132C,0.82
10,C6U C45U G80C,0.15
11,A5G A63U A69G A94G,0.76
12,A5U U12C A13G A59G,1.32
13,A5G A60U C101A,0.03
14,A5U U19C A62G,1.2
15,A5G A66G A82G A94C U108C,0.06
16,A5U A33G A56G A66G A86U U97C A98U A140U,0.04
17,A5G G48A U57C,0.88
18,A5G A64G U87C A91G,0.41
19,A5G A51G A90G A98G,0.1
20,C6U A24G A140G,0.32
21,A5G A24G A95G G106U,0.02
22,A5U A22U A110G U127A,0.43
23,A5U C6G A90G A96G U130C,0.91
24,A5G U39C A89G U130C U133C,0.75

row,Variant,self-cleavage
1,A5U G14A U39C U103A C121A,0.84
2,A5G A30G A96U U102A,1.65
3,A5G A55G A78U,0.5
4,A5G U9C A126U,0.79
5,A5G U37C U43C A60G,0.77
6,A5G U39C A55G,1.49
7,A5G U87C U127A,1.74
8,A5G G14U A59G A91G,0.52
9,A5G A30G A68G A92G A95G A116G,1.14
10,G7A A18U A91G A116G,0.83
11,A5G C113U U122C,0.09
12,G7A A67G A116G,1.08
13,A5G A59U U108C A117U,0.06
14,A5G A36U U39A A62G,0.93
15,A5G G15A A59G G75A,0.2
16,A5G A51U U72A A92G,0.15
17,A5G U39C A59U,1.47
18,G7A A11G A23U U72A U122C,0.19
19,A5G A60G G75A A98G,0.17
20,A5G A82G U132C,0.65
21,A5G U19C A68U,1.34
22,A5U A36U U43A A110G,0.54
23,A5G A55G A66G,0.67
24,C6U U9C A91G,0.47

row,Variant,self-cleavage
1,G7A A47G U87A A89G U122A,0.7
2,G7A A60U U127C U131C,1.63
3,A5G A23G U108G,0.02
4,A5U A60G A64U A89G U120G,1.48
5,A5G A62G U108A,0.05
6,A5U G53U A54G A82G,1.05
7,G7A A18U U122C,0.61
8,A5U A22U A68G A92G A96G A116G,1.84
9,C6U G41A A90G,0.74
10,A5G G41A U100C,1.93
11,A5G A82G U122C U132C,0.38
12,A5G U38C A47G,1.14
13,A5U A86G U122C,0.76
14,A5G A91G A110C,0.19
15,A5G U9C A78U A89U U132C,0.42
16,C6A A22G A95G,1.63
17,A5G A89G U132C,1.29
18,A5U U43A U57G G99C,0.25
19,A5G A24G A54U A56G A86G,0.57
20,A5G A33U A134U,1.72
21,A5G U19A U70C U122G,1.01
22,A5G A24G U38G A56U A60G A111C,0.07
23,A5G A36G A68G,1.38
24,A5G U19C A24U U49A,1.49

row,Variant,self-cleavage
1,A5U A68G U97C U103C,1.12
2,C6U U9C U100C U133C,1.52
3,A5G U19A G83A G115A U122A,0.08
4,A5G G7U A11G A24G A56G,0.35
5,A5G C17U A82G,0.74
6,A5G A55G U87C A91G,0.95
7,A5G A24G A118G,0.49
8,A5U U9C U37C,2.15
9,A5U U130C U131C,0.21
10,A5G A51G A78U A125U,0.32
11,A5G U9C A13G A82U A96G,0.13
12,A5G A56G G75U A95G,0.11
13,A5G U49A A62G A89G A114C,0.05
14,A5U A52G A129G,0.63
15,A5G U124G U130C,0.7
16,C6U A52G A69G U70C U122C,0.25
17,A5G A68G A125G,0.47
18,A5G U12A A62G A82G A92G A98G,0.14
19,A5G A78G A94G U120C,0.2
20,A5U U9C U37C A68G A110U A117G A118G U122C,0.49
21,A5G U38C A54U U100C U103C,2.01
22,A5G A24G U70A U122C,0.93
23,A5G A30G A66U A68G U120A,0.95
24,A5G G44A U49C U102C U122C,1.59

row,Variant,self-cleavage
1,A5U U39A U108A,0.11
2,A5G A23G U37C,0.72
3,C6U C71U A78G A96G U124C,0.06
4,A5G A55G A60G A66G U127C,0.74
5,A5G A56G A125C,0.62
6,C6U A23U A59G A68G,0.65
7,A5G U12C A13G A51G G74A A125G,0.12
8,C6U U70A U97C,0.56
9,A5G G7A U57C,1.14
10,A5G G74A U108C A134G,0.01
11,A5U A92G U132C,0.18
12,A5G U9C U39G G136A,2.13
13,A5G A62U A66G A68G A78G,0.39
14,A5G U26A A54U,1.18
15,A5U A23G C40U A47U,0.17
16,C6U A94C U122C U139C,0.84
17,C6U A47C U122C,1.23
18,A5G A89G A95G,2.55
19,A5G A54G A78U A89G A98U A111G A126G,0.02
20,C6U A66G U108C A118G,0
21,A5U U49C U72C A118G,0.17
22,C6U A60G U70C A91U,2.11
23,A5G A59G A94G,1.06
24,A5G U87A C109G A129U,0.01

row,Variant,self-cleavage
1,A5U U38A A47G U132C,0.96
2,A5G U43C A96G A116G,1.18
3,A5G A60G A91C A95G,1.29
4,A5G A54C A60G A92G U127A,0.85
5,A5U U72C A94G A98U,0.6
6,A5G A117G A140G,1.5
7,C6U C25U U37C A90G A117U,0.84
8,A5G A62G A82G A117G,1.24
9,A5G A51U A125G,0.57
10,A5G A82U U122C,0.27
11,A5G A68G U102A U108C,0.02
12,A5G C81A A91G,0.17
13,A5G A59U U108G A117G U132C,0.01
14,A5G U37G A47G U124C U131C,0.37
15,A5G A69C A110G,0.26
16,G7A A22G A95G,1.62
17,A5G U122C U127G,2
18,A5G A33U A95G U102A,1.09
19,A5G A33G A78G,0.19
20,A5G A68U A129G,0.99
21,A5G U57C A86U A89G A111G,0
22,A5G C6U U43C,2.16
23,A5G A59G A63U A68G U102C,1.5
24,A5G U19C A68U G79A,0.11

row,Variant,self-cleavage
1,G7A A23G G44A A110G A118G U130C,0.04
2,A5G A23G A86G U130A,0.77
3,C6U U49A A51G A66U A78U A92G,0.48
4,A5G A60U A94U U108C,0.06
5,A5U A55U A94U,1.53
6,A5G U57A A92G,0.42
7,A5G G21C U39A U57C A60U A69G,0.53
8,A5G A33G A59G A82U,0.19
9,A5G A95G U130C,0.58
10,A5G G44A A55U G75A A116G A126G,0.04
11,A5U A22U A82G A111G C113U,0.14
12,A5G C40A U133C,0.23
13,A5G U43A U57C A60G A92G,0.72
14,A5G A67G U132A,0.74
15,G7A A54G A64U U122A,0.28
16,A5G A24G U26A A92G,1.57
17,A5G A116G A117G A125G,0.1
18,A5G U12A U19C A24G U70C,1.44
19,C6U U43C A89U U120C,0.91
20,A5G A30G G41A U132C,0.71
21,C6U U9C A66G A92U A140G,2.07
22,A5G U9G G58U A92G A117G,1.14
23,C6U A23G A36G C45U A59G U87A U122A,0
